Here are results for 63 molecules from PubChem BioAssay AID1645882 (National Center for Advancing Translational Sciences (NCATS), 2021).

The whole screen tested about 16,000 compounds, of which about 120 (0.75%) were called active. Another 4% or so got no clear call; they are omitted. Calls come from the whole dose curve; as a rule, active = well fitted inhibition curve with a large enough effect; inconclusive = small, poorly fitted or top-dose-only effect; inactive = no such curve, though single readings can be large or run the other way. The list shows a part of the results.

The target in this experiment is Rap guanine nucleotide exchange factor 3 (Homo sapiens) (UniProt O95398). Kind of experiment: Validation qHTS for antagonist of cAMP-regulated guanine nucleotide exchange factor 3 (EPAC1).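 Note: plate controls were DMSO for no effect and ATA control for full effect; nearly all actives have a fitted effect of over 75% in size.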 The settings on record: EPAC1 Rap1B-BODIPY-GDP exchange, fluorescence; series mostly up to 150 µM; activity change, negative = inhibition: at the top concentration. Put shortly: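 EPAC1 (100 nM) mixed with 250 nM RAP1B-BODIPY-GDP and 50 uM GDP; compounds in concentration series, 5 min at room temperature. Fluorescence (ex 480/em 540 nm) read every 5 min for 30 min; normalized to ATA control and DMSO.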
UniProt O95398, sequence (O95398 whole entry, looked up): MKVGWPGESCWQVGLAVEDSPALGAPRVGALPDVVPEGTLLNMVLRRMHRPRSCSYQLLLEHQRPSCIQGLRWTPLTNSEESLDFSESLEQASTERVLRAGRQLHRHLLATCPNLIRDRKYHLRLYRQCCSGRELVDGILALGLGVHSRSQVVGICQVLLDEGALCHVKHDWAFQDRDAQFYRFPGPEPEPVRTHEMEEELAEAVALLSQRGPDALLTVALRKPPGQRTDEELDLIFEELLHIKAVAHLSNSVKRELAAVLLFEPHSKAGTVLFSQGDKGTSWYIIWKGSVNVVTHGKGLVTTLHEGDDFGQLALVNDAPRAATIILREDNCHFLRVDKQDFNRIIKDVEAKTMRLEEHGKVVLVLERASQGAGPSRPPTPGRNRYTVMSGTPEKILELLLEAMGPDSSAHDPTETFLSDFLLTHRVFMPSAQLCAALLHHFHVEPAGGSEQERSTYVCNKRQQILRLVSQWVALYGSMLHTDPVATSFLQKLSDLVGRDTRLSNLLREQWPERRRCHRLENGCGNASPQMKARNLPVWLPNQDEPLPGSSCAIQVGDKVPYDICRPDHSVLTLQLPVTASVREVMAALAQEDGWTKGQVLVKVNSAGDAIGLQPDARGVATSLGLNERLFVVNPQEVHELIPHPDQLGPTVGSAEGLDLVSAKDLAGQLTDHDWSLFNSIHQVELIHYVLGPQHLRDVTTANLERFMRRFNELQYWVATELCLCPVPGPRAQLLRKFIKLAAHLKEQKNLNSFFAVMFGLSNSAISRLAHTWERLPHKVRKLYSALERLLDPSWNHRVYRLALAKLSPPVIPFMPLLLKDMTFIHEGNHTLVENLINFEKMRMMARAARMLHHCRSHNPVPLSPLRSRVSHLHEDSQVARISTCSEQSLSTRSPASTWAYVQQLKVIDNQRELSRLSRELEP
For the molecule `COc1ccccc1-c1ccc(C(=O)N2CCC(N3CCc4ccccc4C3)CC2)c(N(C)CC2COCCO2)n1` (stereo not drawn), the “activity change, negative = inhibition” value was inactive: 14%.
Regarding `CC(C)(C)NC[C@H](O)COc1cccc2[nH]c(=O)[nH]c12`, the “activity change, negative = inhibition” value was inactive: 11.5%.
`CCOc1ccc(C(=O)c2ccc(O)c(O)c2O)cc1`: the “activity change, negative = inhibition” value is inactive: 19.1%.
Turning to `COc1ccc(CN2CCCC(n3cc(C(=O)N4CCCCC4)nn3)C2)c(OC)c1OC` (stereo not drawn), the “activity change, negative = inhibition” value was inactive: -1.24%.
Consider `O=C(O)/C=C1\CCCc2ccccc2[C@H]1O`, for which the “activity change, negative = inhibition” value is inactive: -14.1%.
For `Cc1nc2cnc(N3CCOCC3)nc2n(CCC#N)c1=O`, the “activity change, negative = inhibition” value was inactive: 8.13%.
Consider `O=C(O)CCC/C=C\C[C@@H]1C(/C=C/[C@@H](O)COc2cccc(C(F)(F)F)c2)[C@@H](O)C[C@@H]1O` (stereo partly drawn), for which the activity change, negative = inhibition was inactive: 41.2% [at 15.3 µM].
For `CCCCC[C@H](O)/C=C/C=C\C=C\C=C\[C@@H](O)[C@@H](O)CCCC(=O)O`, the activity change, negative = inhibition is inactive: 18.1% [at 1.57 µM].
For the molecule `COc1ccc(CN2CCCC(n3cc(C(=O)N4CCCCC4)nn3)C2)cc1OC` (stereo not drawn), the “activity change, negative = inhibition” value is inactive: 20%.
For the molecule `CN(C)CC/C=C1\c2ccccc2COc2ccccc21`, the activity change, negative = inhibition entry was “inactive”.
On to `Cc1cc(-c2ccnc(-n3ncc(C(=O)NCC4COCCO4)c3C)n2)c(C)s1` (stereo not drawn), for which the “activity change, negative = inhibition” value is inactive: 24.4%.
For `Cc1cnccn1`, the “activity change, negative = inhibition” value was inactive: 16.2%.
Next, `CC(C)NC(=O)N1CCCC2(CCN(C(=O)c3ccncc3)CC2)C1`: inactive: 22.4%; `Cn1cc(S(C)=O)c(=O)c2ccc(F)cc21` (stereo not drawn): inactive: 26.7%.
For the molecule `CC1=C(C(=O)OCc2ccccc2)N2C(=O)[C@@H](NC(=O)OCc3ccccc3)[C@H]2SC1`, the “activity change, negative = inhibition” value is inactive: -3.97%.
For `COc1ccccc1/C=c1/[nH]c(=O)/c(=C\c2ccccc2OC)[nH]c1=O`, the “activity change, negative = inhibition” value was inactive: 17.3%.
On to `COCC(=O)Nc1cc(C(=O)NC2C3CC4CC2CC(O)(C4)C3)cc2nc(-c3ccccc3)n(C)c12` (stereo not drawn), for which the “activity change, negative = inhibition” value is inactive: 6.21%.
For `CN1CCN(c2ncc3nc(-c4cn(C)c5ccccc45)c(=O)n(C)c3n2)CC1`, the “activity change, negative = inhibition” value was inactive: 13.3%.
Turning to `Nc1nc2c(nc(Cl)n2C2OC(CO)C(O)C2O)c(=O)[nH]1` (stereo not drawn), the “activity change, negative = inhibition” value was inactive: 6.29%.
For the molecule `COCC(=O)Nc1cc(C(=O)N2CCN(C)C(c3ccccc3)C2)c2c(c1)nc(-c1ccncc1)n2C` (stereo not drawn), the “activity change, negative = inhibition” value was inactive: 21.3%.
Turning to `Cc1nc2cnc(Oc3cccc(Cl)c3)nc2n(CCC#N)c1=O`, the “activity change, negative = inhibition” value was inactive: 0.704%.
In the case of `CCOC(=O)[C@H](CS)NCCN[C@@H](CS)C(=O)OCC`, the “activity change, negative = inhibition” value was inactive: 13.3%.
For `COC(=O)c1cn([C@@H]2C[C@@H](C(=O)Nc3cccc(SC)c3)N(C3CCCC3)C2)nn1`, the “activity change, negative = inhibition” value is inactive: 15.6%.
Regarding `COc1ncc2nc(-c3ccc(Cl)cc3)c(=O)n(CCc3ccccc3)c2n1`, the “activity change, negative = inhibition” value was inactive: 12.2%.
Take `COc1cc(=O)n2c(c1C(=O)NC(C)c1ccco1)CCN(Cc1ccccc1C(F)(F)F)CC2` (stereo not drawn): the “activity change, negative = inhibition” value was inactive: -4.41%.
As for `CCn1c(-c2ccccc2F)nc2cc(NC(C)=O)cc(C(=O)N(C)Cc3ccccn3)c21`, the “activity change, negative = inhibition” value is inactive: 21.9%.
In the case of `COC(=O)N1CCC2(CCN(Cc3ccccc3)CC2)CC1`, the “activity change, negative = inhibition” value is inactive: 17%.
As to `COCCn1c(=O)c(CCc2ccccc2)nc2cnc(N3CCOCC3)nc21`, the “activity change, negative = inhibition” value is inactive: -4.86%.
Regarding `CCCCNC(=O)[C@@H]1CC=C[C@@H]2CCN(C3CCCCC3)C(=O)[C@@H]21`, the “activity change, negative = inhibition” value is inactive: 4.35%.
As for `O=C(NCCc1ccccn1)C1CC12CCN(C(=O)c1c(F)cccc1Cl)CC2` (stereo not drawn), the “activity change, negative = inhibition” value was inactive: -2.14%.
With `CC(=O)C[C@H]1c2cc(C(F)(F)F)ccc2S(=O)(=O)N1c1ccc(N(C)C)cc1`, the “activity change, negative = inhibition” value was inactive: 11.1%.
Next, `COCCn1c(=O)c(-c2cccc(C#N)c2)nc2cnc(Nc3ccccc3)nc21`: inactive: 35.3%; `N#Cc1cccc(-c2cncnc2NCc2cccs2)c1`: inactive: 7.48%; `CC1(C)C[C@@H]2C(=O)CCC3O[C@@]3(C)CCC21` (stereo partly drawn): inactive: 4.53%.
On to `COC(=O)c1cn([C@@H]2C[C@@H](C(=O)Nc3cccc(SC)c3)N(C3CCCCCC3)C2)nn1`, for which the “activity change, negative = inhibition” value is inactive: -17.6%.
With `COc1cc(-c2noc(C)c2/C=C/c2cccc([N+](=O)[O-])c2)cc(OC)c1OC`, the “activity change, negative = inhibition” value is inactive: 3.61%.
As for `COC(=O)C[C@H]1c2cc(C(F)(F)F)ccc2S(=O)(=O)N1Cc1ccccc1OC`, the “activity change, negative = inhibition” value was inactive: -10.5%.
On to `NOCC(=O)O`, for which the “activity change, negative = inhibition” value was inactive: 8.14% [at 75.8 µM].
As for `O=c1c(-c2ccccc2)nc2cnc(N3CCNCC3)nc2n1Cc1cccs1`, the “activity change, negative = inhibition” value was inactive: 10.5%.
Next, `O=C(c1ccoc1)N1CCOc2ccc(CN3CCC(Oc4cccnc4)CC3)cc2C1`: inactive: 21.1%.
Take `COc1cccc(CN2CCOc3ccc(CN4C[C@@H](C)O[C@@H](C)C4)cc3C2)c1OC`: the “activity change, negative = inhibition” value is inactive: 9.34%.
Then `CCC1(C2CCN(C(=O)c3ccc(C)cc3C)CC2)NC(=O)N(CCc2scnc2C)C1=O` (stereo not drawn), with inactive: 6.46%.
As to `OCC(O)C(O)C(O)C(O)C(O)CO` (stereo not drawn), the “activity change, negative = inhibition” value was inactive: 21%.
Take `CCn1c(-c2cccnc2)nc2cc(NC(=O)COC)cc(C(=O)N3CCOc4ccccc4C3)c21`: the “activity change, negative = inhibition” value is inactive: 17.2%.
Consider `N#CCCn1c(=O)c(-c2cccs2)nc2cnc(OCc3ccccc3)nc21`, for which the “activity change, negative = inhibition” value is inactive: 5.94%.
Next, `O=C(NCC1(N2CCCCC2)CCCCC1)c1ccc(-n2cc(NC(=O)c3cccnc3)cn2)cc1`: inactive: 2.9%.
Consider `CC(C)=CCC/C(C)=C/CC/C(C)=C/CC/C(C)=C/CC1=C(C)C(=O)c2ccccc2C1=O`, for which the activity change, negative = inhibition entry was “inactive”.
On to `CN1CCN(c2ncc3nc(-c4ccc(Cl)cc4)c(=O)n(C)c3n2)CC1`, for which the “activity change, negative = inhibition” value was inactive: 4.36%.
Regarding `Cc1ccccc1C1(CC(=O)N2CCCC2c2nccs2)CC(=O)N(C2CCCC2)C1=O` (stereo not drawn), the “activity change, negative = inhibition” value was inactive: 3.91%.
As to `COc1cc(O)c(C)c(O)c1`, the “activity change, negative = inhibition” value is inactive: 18.8%.
Turning to `O=C(Nc1ccc(Cl)c(Cl)c1)C1CC1`, the “activity change, negative = inhibition” value is inactive: 10.5%.
Take `Cn1cccc1C(=O)N1CCC2(CCCN(C(=O)Nc3cccc(F)c3)C2)CC1`: the “activity change, negative = inhibition” value is inactive: 16.8%.
Next, `C[C@H](C[C@H](N)C(=O)O)C(=O)O`: inactive: 11.4%.
As for `COC(=O)c1c(OCc2ccccn2)cc(=O)n2c1CCN(Cc1ccc3nsnc3c1)CC2`, the “activity change, negative = inhibition” value is inactive: 8.51%.
Take `COc1cc(-c2cc(C)c3cccc(OC)c3n2)cc2c1OCCN(C(=O)CCn1nc(C)cc1C)C2`: the “activity change, negative = inhibition” value was inactive: -17.9%.
Consider `CCC1CN(Cc2cn[nH]c2-c2ccc(F)cc2)Cc2cc(OC)ccc2O1` (stereo not drawn), for which the “activity change, negative = inhibition” value was inactive: -11.5%.
For the molecule `COCCN(C)C(=O)c1cnn(-c2nccc(-c3cc(OC)ccc3OC)n2)c1C`, the “activity change, negative = inhibition” value was inactive: 10.7%.
`CN(C)C(=O)[C@@H]1C[C@@H](Sc2nc3ccccc3[nH]2)CN1Cc1ccc(Cl)cc1`: the “activity change, negative = inhibition” value is inactive: -9.39%.
For `COc1ccccc1CNc1ncncc1-c1ccc(C(=O)N(C)C)cc1`, the “activity change, negative = inhibition” value was inactive: 9.66%.
As for `Cn1nnnc1SCC1=C(C(=O)O)N2C(=O)[C@@H](NC(=O)[C@H](OC=O)c3ccccc3)[C@H]2SC1`, the “activity change, negative = inhibition” value was inactive: 24%.
For `Cc1ccc2c(c1)CN(CCNC(=O)C(C)Oc1ccccc1)CC(C)O2` (stereo not drawn), the “activity change, negative = inhibition” value is inactive: 2.58%.
For the molecule `Cn1cccc1C(=O)N1CCC2(CC1)CCN(c1ncccn1)CC2`, the “activity change, negative = inhibition” value is inactive: 14.8%.
Next, `O=C(NC1CCCC1)c1cn(C2CCN(Cc3cccc4cccnc34)CC2)nn1`: inactive: 22.7%.
